Reference: the supplement of paper PMC8728848
Some of the results follow.

Legend:
Assay in all cases: glycan array binding signal (z-score within array); higher = stronger binding
Conditions in all cases: glycan notation: IUPAC condensed, linker removed
Neu5Ac(a2-8)Neu5Ac = target: Neu5Ac(a2-8)Neu5Ac
How it was run: (§1)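 The Consortium for Functional Glycomics database supplied 3228 glycan arrays, of which those lacking an available protein sequence were dropped. The binding signal, a within-array Z-score, was averaged across arrays of the same protein sequence and across linkers. Negative scores can be read as non-binding.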

[1] = target: Neu5Ac(a2-8)Neu5Ac(a2-3)Gal(b1-3)GalNAc(b1-4)[Neu5Ac(a2-3)]Gal(b1-4)Glc
How it was run: as §1

[2] = target: Neu5Ac(a2-8)Neu5Ac(a2-3)Gal(b1-3)GalNAc(b1-4)[Neu5Ac(a2-8)Neu5Ac(a2-3)]Gal(b1-4)Glc
How it was run: as §1

[3] = target: Neu5Ac(a2-8)Neu5Ac(a2-3)Gal(b1-4)Glc
How it was run: as §1

[4] = target: Neu5Ac(a2-8)Neu5Ac(a2-3)Gal(b1-4)GlcNAc
How it was run: as §1

[5] = target: Neu5Ac(a2-8)Neu5Ac(a2-3)[Gal(b1-3)GalNAc(b1-4)]Gal(b1-4)Glc
How it was run: as §1

[6] = target: Neu5Ac(a2-8)Neu5Ac(a2-3)[GalNAc(b1-4)]Gal(b1-4)Glc
How it was run: as §1

[7] = target: Neu5Ac(a2-8)Neu5Ac(a2-8)Neu5Ac
How it was run: as §1

[8] = target: Neu5Ac(a2-8)Neu5Ac(a2-8)Neu5Ac(a2-3)Gal(b1-4)Glc
How it was run: as §1

[9] = target: Neu5Ac(a2-8)Neu5Ac(a2-8)Neu5Ac(a2-3)[Gal(b1-3)GalNAc(b1-4)]Gal(b1-4)Glc
How it was run: as §1

[10] = target: Neu5Ac(a2-8)Neu5Ac(a2-8)Neu5Ac(a2-3)[GalNAc(b1-4)]Gal(b1-4)Glc
How it was run: as §1

[11] = target: Neu5Ac(a2-8)Neu5Ac(a2-8)Neu5Ac(a2-8)Neu5Ac(a2-3)[GalNAc(b1-4)]Gal(b1-4)Glc
How it was run: as §1

[12] = target: Neu5Ac(a2-8)Neu5Gc(a2-3)Gal(b1-4)GlcNAc
How it was run: as §1

[13] = target: Neu5Ac(b2-6)Gal(b1-4)GlcNAc
How it was run: as §1

Neu5Ac(b2-6)GalNAc = target: Neu5Ac(b2-6)GalNAc
How it was run: as §1

[14] = target: Neu5Ac9Ac(a2-3)Gal(b1-3)GlcNAc
How it was run: as §1

[15] = target: Neu5Ac9Ac(a2-3)Gal(b1-4)GlcNAc
How it was run: as §1

[16] = target: Neu5Ac9Ac(a2-6)Gal(b1-4)GlcNAc
How it was run: as §1

[17] = target: Neu5Gc(a2-3)Gal(b1-3)GlcNAc
How it was run: as §1

[18] = target: Neu5Gc(a2-3)Gal(b1-3)[Fuc(a1-4)]GlcNAc
How it was run: as §1

Neu5Gc(a2-3)Gal(b1-4)Glc = target: Neu5Gc(a2-3)Gal(b1-4)Glc
How it was run: as §1

[19] = target: Neu5Gc(a2-3)Gal(b1-4)GlcNAc
How it was run: as §1

[20] = target: Neu5Gc(a2-3)Gal(b1-4)GlcNAc(b1-3)Gal(b1-4)GlcNAc(b1-2)Man(a1-3)[Neu5Gc(a2-3)Gal(b1-4)GlcNAc(b1-3)Gal(b1-4)GlcNAc(b1-2)Man(a1-6)]Man(b1-4)GlcNAc(b1-4)GlcNAc
How it was run: as §1

[21] = target: Neu5Gc(a2-3)Gal(b1-4)[Fuc(a1-3)]GlcNAc
How it was run: as §1

[22] = target: Neu5Gc(a2-6)Gal(b1-4)GlcNAc
How it was run: as §1

Neu5Gc(a2-6)GalNAc = target: Neu5Gc(a2-6)GalNAc
How it was run: as §1

[23] = target: Neu5Gc(a2-8)Neu5Ac(a2-3)Gal(b1-4)GlcNAc
How it was run: as §1

[24] = target: Neu5Gc(a2-8)Neu5Gc(a2-3)Gal(b1-4)GlcNAc
How it was run: as §1

[25] = target: Neu5Gc(a2-8)Neu5Gc(a2-3)Gal(b1-4)GlcNAc(b1-3)Gal(b1-4)GlcNAc
How it was run: as §1

[26] = target: Neu5Gc(a2-8)Neu5Gc(a2-6)Gal(b1-4)GlcNAc
How it was run: as §1

[27] = target: Neu5Gc(b2-6)Gal(b1-4)GlcNAc
How it was run: as §1

B1: Siglec-9 (Homo sapiens), Q9Y336 (protein)
chain: MLLLLLPLLWGRERAEGQTSKLLTMQSSVTVQEGLCVHVPCSFSYPSHGWIYPGPVVHGYWFREGANTDQDAPVATNNPARAVWEETRDRFHLLGDPHTKNCTLSIRDARRSDAGRYFFRMEKGSIKWNYKHHRLSVNVTALTHRPNILIPGTLESGCPQNLTCSVPWACEQGTPPMISWIGTSVSPLDPSTTRSSVLTLIPQPQDHGTSLTCQVTFPGASVTTNKTVHLNVSYPPQNLTMTVFQGDGTVSTVLGNGSSLSLPEGQSLRLVCAVDAVDSNPPARLSLSWRGLTLCPSQPSNPGVLELPWVHLRDAAEFTCRAQNPLGSQQVYLNVSLQSKATSGVTQGVVGGAGATALVFLSFCVIFVVVRSCRKKSARPAAGVGDTGIEDANAVRGSASQGPLTEPWAEDSPPDQPPPASARSSVGEGELQYASLSFQMVKPWDSRGQEATDTEYSEIKIHR
glycan array binding signal (z-score) (Neu5Ac(a2-8)Neu5Ac): 0.068 | glycan array binding signal (z-score) [1]: -0.141 | glycan array binding signal (z-score) [2]: 0.126 | glycan array binding signal (z-score) [3]: -0.136 | glycan array binding signal (z-score) [4]: -0.259 | glycan array binding signal (z-score) [5]: -0.214 | glycan array binding signal (z-score) [6]: -0.148 | glycan array binding signal (z-score) [7]: -0.139 | glycan array binding signal (z-score) [8]: 0.076 | glycan array binding signal (z-score) [9]: -0.293 | glycan array binding signal (z-score) [10]: 0.005 | glycan array binding signal (z-score) [11]: -0.237 | glycan array binding signal (z-score) [12]: -0.084 | glycan array binding signal (z-score) [13]: -0.086 | glycan array binding signal (z-score) (Neu5Ac(b2-6)GalNAc): -0.222 | glycan array binding signal (z-score) [14]: -0.133 | glycan array binding signal (z-score) [15]: 0.165 | glycan array binding signal (z-score) [16]: -0.042 | glycan array binding signal (z-score) [17]: -0.028 | glycan array binding signal (z-score) [18]: -0.012 | glycan array binding signal (z-score) (Neu5Gc(a2-3)Gal(b1-4)Glc): 0.235 | glycan array binding signal (z-score) [19]: 0.444 | glycan array binding signal (z-score) [20]: -0.051 | glycan array binding signal (z-score) [21]: 0.005 | glycan array binding signal (z-score) [22]: -0.128 | glycan array binding signal (z-score) (Neu5Gc(a2-6)GalNAc): -0.06 | glycan array binding signal (z-score) [23]: 0.005 | glycan array binding signal (z-score) [24]: -0.136 | glycan array binding signal (z-score) [25]: -0.178 | glycan array binding signal (z-score) [26]: -0.451 | glycan array binding signal (z-score) [27]: 0.086
